Measurements taken from the RNAGym collection of RNA variant scans (doi:10.7554/elife.90254).
Read counts are not given, so values of variants with three or more changes are uncertain.

B1: LINE1-full (parent)
chain: UACGUAGGUGGUUUUCCCCUGAUAGUGCUAAGGGGGCCUGGAAGUUUGGACUGGGCAGAGCUCAACACAGCGUGGCAAAGUGGCUGUGGCUAGACUGCCUCUCUGGAUUCCUCGUCACUCAGCAGGGCAUCUCUGAGAGAAAUGCC

Variants of: B1
Experiment: self-cleavage, relative activity (ratio to wild type); higher = more cleavage; in vitro, sequencing; the parent is a self-cleaving ribozyme
G25A U102A U112C gave a self-cleavage of 1.65.
U12C A77U U81C A142G showed a self-cleavage of 1.28.
A2C A77U U100C G144A showed a self-cleavage of 1.77.
G44U A69G C98U gave a self-cleavage of 0.08.
U15C A107G U134C A142G gave a self-cleavage of 1.31.
In the case of U1C U9C G35A U73A G89A, the self-cleavage is reported as 0.03.
Variant U13G U20A U143C has a self-cleavage of 0.59.
U73A U109C C146U showed a self-cleavage of 0.89.
For A6U G35A A50U A77G, the self-cleavage was 0.89.
With U20C U73A A138U the self-cleavage was 1.74.
Variant U1C A31U U46C U81C A129U A138G has a self-cleavage of 0.
Variant G10A U14C C63U U104G A124U has a self-cleavage of 0.26.
Variant U14C G36U U100C has a self-cleavage of 1.73.
A31U G35A A42G A59C A67G U119A A140G showed a self-cleavage of 0.31.
Work on U108C C110U A117G U143C yielded a self-cleavage of 2.47.
For U13C G21A A79G A107G A138G, the self-cleavage was 0.
A22G A31U U62C showed a self-cleavage of 0.
Variant G10A A64U G126A has a self-cleavage of 0.52.
For A30G G34U C118G, the self-cleavage was 0.86.
Work on G4A U45C U115A yielded a self-cleavage of 1.53.
In the case of G7A U85A U115C, the self-cleavage is reported as 0.04.
A6G U81C C90U gave a self-cleavage of 0.11.
U13C A22G G126U showed a self-cleavage of 0.77.
U1A U13C U85A U119A showed a self-cleavage of 0.23.
G40A A77G C128G gave a self-cleavage of 1.52.
G7A U9A A67C U85A U134C showed a self-cleavage of 0.04.
G35U G40A U104A U112C U134C A142G gave a self-cleavage of 0.61.
For U5A G35A A138U, the self-cleavage was 0.34.
Variant U1A U46A A64U A79G has a self-cleavage of 0.37.
Variant U15C C17U G55A C120U U143C has a self-cleavage of 0.81.
A92U A94G C120A showed a self-cleavage of 0.18.
U81C A117C G126A gave a self-cleavage of 1.88.
In the case of U14C G34A A79G U104C, the self-cleavage is reported as 1.23.
With U45G A50G A142G the self-cleavage was 1.08.
In the case of A22G U47A A57U G114A U119G U134C, the self-cleavage is reported as 0.08.
Variant U15C U20A U108C A136G has a self-cleavage of 2.3.
With U14C C19U A136U the self-cleavage was 1.09.
In the case of G10A A42C U81G, the self-cleavage is reported as 0.81.
Work on U15A A42U U45A yielded a self-cleavage of 0.54.
A22U A94G U108C C131A gave a self-cleavage of 0.55.
U20C U45C A78U A141G C146U showed a self-cleavage of 2.12.
Work on A22U A43C G55C A79G yielded a self-cleavage of 0.
U109A A140G U143G gave a self-cleavage of 0.49.
With U12C A42G A65G the self-cleavage was 0.24.
Variant U62C A64U U109C C113U has a self-cleavage of 0.05.
Variant U20C C98U A142G has a self-cleavage of 0.63.
Work on U46C A107G U134C yielded a self-cleavage of 0.
U39C G83U A142G showed a self-cleavage of 0.48.
Variant U73A G135A A136G has a self-cleavage of 1.85.
In the case of U1A A2G U14C C37G U104C A138G, the self-cleavage is reported as 1.31.
With A57U C99U U104A the self-cleavage was 0.05.
G97U C101U U102C gave a self-cleavage of 0.08.
In the case of C37G A64G C76U U81C, the self-cleavage is reported as 0.18.
In the case of U1C U20A A43C A140U, the self-cleavage is reported as 1.26.
A43G U112A A138G showed a self-cleavage of 1.66.
Work on U13C A65G U96A U104A yielded a self-cleavage of 0.12.
U13C A50G U87C gave a self-cleavage of 0.
For A43G U102C U143C, the self-cleavage was 1.08.
U12C G35A G48C C103U U104A U112C G114A gave a self-cleavage of 1.64.
A78G U115C U132C showed a self-cleavage of 0.92.
U20C A24U A64U gave a self-cleavage of 0.59.
With A42U A67C A107U A121G A124G A136G A140G the self-cleavage was 0.
In the case of U47C A77U A138C, the self-cleavage is reported as 1.36.
Variant A69G U109A A124U A141G has a self-cleavage of 0.36.
In the case of U9A A22G G86A U100C, the self-cleavage is reported as 0.17.
With U45A A50G A79U the self-cleavage was 0.48.
U39C A77G A138G gave a self-cleavage of 1.64.
With A2G U134C A138G the self-cleavage was 0.
A64G U104C U119C showed a self-cleavage of 0.54.
U9C U47A U91C U119A A142G gave a self-cleavage of 1.22.
U20A U26G U47A U132A gave a self-cleavage of 1.01.
A57G U81C A94U U130A showed a self-cleavage of 0.22.
For A92U A142G U143C, the self-cleavage was 0.82.
U26C G32A A64C G105A gave a self-cleavage of 0.2.
In the case of U13C U20A A64G G75A G114A, the self-cleavage is reported as 0.18.
U15C A43G A64G G126A A138G gave a self-cleavage of 0.
U14C U112C A121G gave a self-cleavage of 2.87.
With G21U A31U U104A U119C A124G the self-cleavage was 0.43.
For U12C A94G A141G, the self-cleavage was 0.26.
With A67G U134A A138G the self-cleavage was 0.3.
For U1C A138G A142G, the self-cleavage was 1.13.
A24U U39C A50U A67G A142G gave a self-cleavage of 0.47.
Work on G4A A43C C116U A117G U132A yielded a self-cleavage of 0.69.
For U5A U100A A138G, the self-cleavage was 0.24.
In the case of U5C U12A A50G A129G A136U, the self-cleavage is reported as 1.44.
A2U U62C A140G showed a self-cleavage of 0.
Variant U14A A77U A138G has a self-cleavage of 1.13.
Variant U14A U47A U100C has a self-cleavage of 1.24.
U1C G40A A129U A140G gave a self-cleavage of 0.61.
In the case of A67G C113U A129G, the self-cleavage is reported as 0.21.
U47A A69G A94G U109A gave a self-cleavage of 0.17.
In the case of A24U C71G U100C A124G, the self-cleavage is reported as 0.12.
In the case of U13C C19U U62A A77G U100C A142G, the self-cleavage is reported as 0.
Work on U12G G75A A124U yielded a self-cleavage of 1.11.
Work on U13C U46C A59G A136G yielded a self-cleavage of 0.22.
For U12G U26A U87A U91A, the self-cleavage was 0.28.
With A24G A31G A77C G106A the self-cleavage was 0.55.
A6G U39G A64C U87A gave a self-cleavage of 0.
Variant U14A U29A A42G U47G A65G A78U U109C has a self-cleavage of 0.
Work on U29G A50U U96A U108C A121U U132C yielded a self-cleavage of 0.
For U12C U26A A59U, the self-cleavage was 0.71.
With U14C G60A U96A the self-cleavage was 0.02.
With U1G U20A A42G A107G A140U the self-cleavage was 1.56.
In the case of A67U A78U C128A, the self-cleavage is reported as 0.06.
U12C U46A A79U gave a self-cleavage of 1.82.
A65G A129U A138U showed a self-cleavage of 0.09.
Variant A6G A22G U109C U130C has a self-cleavage of 0.
For U9C U47C A138U, the self-cleavage was 0.85.
For A31G A50G A140G, the self-cleavage was 0.28.
Variant C16U A65G G72A A141G has a self-cleavage of 0.02.
For U1A A22G U46G U47A, the self-cleavage was 2.12.
In the case of U12C U47A A79G A141G, the self-cleavage is reported as 0.74.
With U12C U52C G80A A117G the self-cleavage was 2.74.
A6C A107U U130C G137A gave a self-cleavage of 1.82.
Variant U5A A30C G32U has a self-cleavage of 0.
With G33A U73A A94G the self-cleavage was 0.28.
A22G A69G U96A A141U A142G showed a self-cleavage of 0.
Variant A24G U29C A67U U100C C118U has a self-cleavage of 0.
For U13C A65G G72A, the self-cleavage was 0.05.
U9C G34A U39C G44A A79G showed a self-cleavage of 0.72.
Variant U100A U104G U132C has a self-cleavage of 0.
G27A A64G U73C gave a self-cleavage of 0.24.
A2G A69G U81C gave a self-cleavage of 0.42.
Variant A22C A50G A77U A129U has a self-cleavage of 1.26.
U46C U130C U134C showed a self-cleavage of 1.91.
U45C U62C U119A U130C U132C gave a self-cleavage of 0.
Variant A30G U39C U119A A140G has a self-cleavage of 0.92.
With G93C U104A U115C the self-cleavage was 0.06.
Work on U46C A77G A136U yielded a self-cleavage of 1.06.
In the case of U1A A77U A78U A140C, the self-cleavage is reported as 0.58.
In the case of A22G U62C A141G, the self-cleavage is reported as 0.24.
For U15C A30G U104C, the self-cleavage was 0.51.
For C3U U5C C76U U96C, the self-cleavage was 0.39.
In the case of U12C A78G G114U, the self-cleavage is reported as 1.37.
Work on A43C U85C G127C yielded a self-cleavage of 0.56.
U62C A138G A140G showed a self-cleavage of 0.14.
For U73G U134G A141G, the self-cleavage was 1.48.
Work on G40A A121U A140U U143C yielded a self-cleavage of 0.75.
C3A U96A U112C C133A gave a self-cleavage of 0.05.
In the case of A6U A64G A65G, the self-cleavage is reported as 0.
Variant U12G U14C U52A has a self-cleavage of 2.3.
G88A A138G A140U gave a self-cleavage of 0.08.
U45C A59U U96A gave a self-cleavage of 0.08.
With U73A A94G A138G the self-cleavage was 0.23.
With A22G U47A U85A A107G the self-cleavage was 0.32.
Variant U45A A77G C113G has a self-cleavage of 1.93.
With A42G U87C U134C the self-cleavage was 0.
With A31G G33A U73C the self-cleavage was 2.1.
Work on U1C U45C A57U A59U U62A A77G U96C yielded a self-cleavage of 0.
U20C U39A A129U showed a self-cleavage of 1.07.
Work on G60A A124U A140G yielded a self-cleavage of 0.06.
In the case of U9A C37U G72A U134A A140G, the self-cleavage is reported as 0.35.
U14C G48A U109A C145G gave a self-cleavage of 1.15.
For U85C U87C C111U, the self-cleavage was 0.08.
U14A A59G C63U gave a self-cleavage of 0.03.
For U20A G35A C68A U109C A124C, the self-cleavage was 0.02.
For U26C U39C A64U C133U G139A, the self-cleavage was 0.62.
With A2U U14C A78G the self-cleavage was 0.43.
With G4A G75U U104C the self-cleavage was 0.68.
For A24U C38U A138G, the self-cleavage was 1.79.
Work on U20A U26A U104A U112C U115C yielded a self-cleavage of 0.76.
With G32A U73C U91A the self-cleavage was 0.72.
For U9C A77U A140G, the self-cleavage was 1.88.
Work on A31U U47A U73C A129G yielded a self-cleavage of 0.47.
A59G U85C A140G showed a self-cleavage of 0.09.
A67U U104C G125U gave a self-cleavage of 0.09.
A2G U39A A79G C84U gave a self-cleavage of 0.29.
